Experimental data from article PMC5668318.
Where a chain is given by its changes, count along the chain named. No constants are given. Whether binding was seen depends on the method and setting. Binding seen in cells or lysates may run through a third protein. Some entries that bind do so weakly or less than the wild type. Sequences can lack the tags named with a protein. Each block holds one molecule with its values, some of them ahead of it.

The chains behind the UniProt entries cited, without tags or fusion partners. Where a name states a change or a piece, a line headed by the entry shows the natural chain unless it says otherwise.
UniProt Q9W2S2: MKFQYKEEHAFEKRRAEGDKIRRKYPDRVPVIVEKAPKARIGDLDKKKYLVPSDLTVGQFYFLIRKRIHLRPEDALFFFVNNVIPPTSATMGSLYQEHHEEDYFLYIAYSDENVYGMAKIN

What was measured:
[1] = target: T1, 3XFLAG-Kenny (wild type) (Drosophila) (UniProt Q9GYV5); assay: co-IP; anti-FLAG M2-agarose immunoprecipitation from lysates of transfected S2R+ cells, 4 °C overnight, elution with 3XFLAG peptide, blot for GFP
T1 sequence: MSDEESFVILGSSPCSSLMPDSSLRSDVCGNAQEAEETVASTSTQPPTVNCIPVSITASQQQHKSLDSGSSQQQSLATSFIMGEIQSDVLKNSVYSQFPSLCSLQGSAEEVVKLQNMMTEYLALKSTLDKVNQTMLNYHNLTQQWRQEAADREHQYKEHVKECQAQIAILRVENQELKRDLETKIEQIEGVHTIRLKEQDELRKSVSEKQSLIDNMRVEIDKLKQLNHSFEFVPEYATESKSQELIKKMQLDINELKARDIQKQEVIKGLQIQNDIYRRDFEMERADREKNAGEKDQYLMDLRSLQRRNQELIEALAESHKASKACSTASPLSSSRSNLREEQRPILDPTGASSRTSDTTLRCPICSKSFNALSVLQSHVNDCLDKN

[2] = target: T2, GFP-Kenny F7A/L10A (Drosophila) (UniProt Q9GYV5); assay: co-IP; anti-GFP immunoprecipitation (Abcam Ab290, G beads) from lysates of flies expressing GFP-Kenny along with mCherry-ird5; TNT lysis buffer, 2 h at 4 °C
T2 sequence: T1 sequence with F7A, L10A

[3] = target: T3, GFP-Kenny (wild type) (Drosophila) (UniProt Q9GYV5); assay: as above
T3 sequence: T1 sequence

[4] = target: T4, GST-Kenny (wild type) (Drosophila) (UniProt Q9GYV5); assay: pull-down; 1-10 µg GST fusion protein on glutathione-Sepharose beads with 10 µL in vitro translated 35S-methionine-labelled protein; NETN buffer (50 mM Tris pH 8.0, 100 mM NaCl, 6 mM EDTA, 6 mM EGTA, 0.5% Nonidet P-40, 1 mM DTT), 1 h at 4 °C; autoradiography; only the target purified
T4 sequence: T1 sequence

[5] = target: GST-Atg8a (wild type) (Drosophila) (UniProt Q9W2S2); assay: as above
[6] = target: GST-Atg8a LDS mutant (K48A/Y49A) (Drosophila) (UniProt Q9W2S2); assay: as above

B1: mCherry-ird5 (protein, UniProt Q9VEZ5 1-751)
chain: MITVVFCFSDCHGGIQILGRMSSVNKIKLNENNKMHSFGNWERCRNLGEGGFGLVIHWRNRTTGREIATKHIKEMGALSADQQVKLSERWNKELNWSRQFKNFPHIVAGVDIEDPDFLEYLNGMFSAKLPVIVLEYCNGGDVRKRLQSPENANGLTEFEVRQILGALRKALHFLHSQCGICHRDLKPDNIVIQRGVDGKKIYKLTDFGLARGTPDQTMVQSVVGTRHYYAPEVVENGFYNSTVDLWSFGVIAYELVTGELPFIPHQTLKNIILNLIKKPAKCIAITEDPEDNTRFVNQFELPQTHHLSRPWAAQFTKWLASPLNSNYKERGQLAANNVPVVFADLDKILNMNVLTIFAVNNCERLEYAVSAEMTMKDLIALIVLDTGMDEKELYFVLPTSHPHKTITPKSTPLQLYVEEWSDTSKDSRKWTKRSNPPVMLYIFQVKKECDYKIPEPILSILSRKFIANKFKTKERWLQKRVVLDMLYVLTKEQARYEMLVSGINERALSLEDEMMENSFIDSIDKQRIIISFAYDQLTSLLKEAQAKIPSRQLISSAQWEKLNRNYNFIIQSAKSIRSFLEACLREAKDMVKTTNQLRKEVCEKDLFDCARFYKKYLCNGAIISPSELNNDAEEFAKSRFKLYNEGEARHLPKSIDHMHYLYFKTKESIPVLLQQFCDIKKEIFQINLQMLMSASSTPPPKLELSAAMDRLAISSGSPSSDPFDSLRTINAIEEAERINNILVNEMKIDHY
binding [2]: binds | binding [3]: binds

B2: 35S-Myc-ird5 (protein, UniProt Q9VEZ5 1-751)
chain: B1 chain
modifications: 35S-methionine labelled
binding [4]: binds

Now from value to molecule:

binding [1]: binds
Molecule: eGFP-Atg8a (from UniProt Q9W2S2 1-121)

binding [5]: binds | binding [6]: no binding
B3: 35S-Myc-Kenny (wild type) (protein, UniProt Q9GYV5 1-387)
chain: T1 sequence
modifications: 35S-methionine labelled
